In the antibiotic and cytotoxicity screens of Wong et al. (2023) one finds growth inhibition call data, which are given here for 31 molecules.

The list shows a part of the results.

The test relates to S. aureus RN4220. As to the kind of experiment: growth inhibition call (relative growth <= 0.2). The conditions noted are these: 50 µM.
For `C[C@H]1CCCCO[C@@H](CN(C)C(=O)Nc2ccc3c(c2)OCO3)[C@@H](C)CN([C@@H](C)CO)C(=O)c2cc(NC(=O)CCC(F)(F)F)ccc2O1`, the growth inhibition call was “inactive”.

Turning to `C[C@@H]1CN([C@H](C)CO)C(=O)c2cc(NS(=O)(=O)c3cn(C)cn3)ccc2O[C@@H](C)CCCCO[C@@H]1CN(C)S(=O)(=O)c1cccs1`, the growth inhibition call is “inactive”.

`COc1ccc2c3c(n(c2c1)C)[C@@H](CO)N(C[C@]13CN(C1)C(=O)Nc1cccc(c1)F)C(=O)CN1CCOCC1`: the growth inhibition call is “inactive”.

On to `C[C@@H]1CCCCO[C@H](CN(C)Cc2ccc3c(c2)OCO3)[C@H](C)CN([C@@H](C)CO)C(=O)c2cc(NC(=O)C3CCCCC3)ccc2O1`, for which the growth inhibition call was “inactive”.

Regarding `Cc1ccc(S[C@]2(C(=O)NCc3ccccc3)CC(=O)N(C3CCCCC3)[C@@H]2c2ccc(CO)cc2I)cc1`, the growth inhibition call is “inactive”.

Take `C[C@H](CO)N1C[C@H](C)[C@H](CN(C)Cc2ccc(-c3ccccc3)cc2)Oc2c(NC(=O)NC3CCCCC3)cccc2C1=O`: the growth inhibition call is “inactive”.

Take `COc1ccc(S(=O)(=O)N(C)C[C@@H]2OCCCC[C@H](C)Oc3ccc(NS(C)(=O)=O)cc3C(=O)N([C@H](C)CO)C[C@@H]2C)cc1`: the growth inhibition call is “inactive”.

In the case of `C[C@H]1CCCCO[C@H](CN(C)S(C)(=O)=O)[C@@H](C)CN([C@@H](C)CO)C(=O)c2cc(NS(=O)(=O)c3cn(C)cn3)ccc2O1`, the growth inhibition call was “inactive”.

On to `C[C@H]1CN([C@@H](C)CO)C(=O)Cc2cc(NS(=O)(=O)c3cn(C)cn3)ccc2O[C@@H]1CN(C)Cc1ccncc1`, for which the growth inhibition call is “inactive”.

As to `Cc1cccc(C)c1Nc1nc2c(C)cc(C)c(C)c2s1`, the growth inhibition call is “inactive”.

`N=C(N)SCCc1cnc[nH]1`: the growth inhibition call is “inactive”.

In the case of `C#CCOC(=O)[C@@H]1[C@@H](C(=O)O)[C@@H]2C=C[C@@H]1C2`, the growth inhibition call was “inactive”.

Turning to `COc1cccc(S(=O)(=O)N[C@@H]2CC[C@@H](CCn3cc(-c4ccccc4OC)nn3)O[C@@H]2CO)c1`, the growth inhibition call is “inactive”.

Consider `C[C@H](CO)N1C[C@H](C)[C@H](CN(C)Cc2ccc(Oc3ccccc3)cc2)Oc2ccc(NC(=O)Cc3cn(C)c4ccccc34)cc2CC1=O`, for which the growth inhibition call was “inactive”.

`CN(C)CCCNc1ncnc(N)c1[N+](=O)[O-]`: the growth inhibition call was “inactive”.

As for `C[C@H]1CN([C@@H](C)CO)C(=O)c2cc(NS(=O)(=O)c3cccs3)ccc2O[C@H]1CN(C)S(=O)(=O)c1cccs1`, the growth inhibition call is “inactive”.

For the molecule `COc1ccc(NC(=O)Nc2cccc3c2O[C@@H](CN(C)Cc2ccc(C(=O)Nc4ccccc4N)cc2)[C@H](C)CN([C@@H](C)CO)C3=O)cc1`, the growth inhibition call is “inactive”.

For `COCC(=O)N1[C@@H]2CC[C@H]1COC2`, the growth inhibition call is “inactive”.

On to `C[C@@H]1CCCCO[C@H](CN(C)C(=O)c2ccccc2)[C@H](C)CN([C@H](C)CO)C(=O)c2cc(NC(=O)c3ccccc3)ccc2O1`, for which the growth inhibition call was “inactive”.

For the molecule `C[C@@H]1CN([C@@H](C)CO)C(=O)c2cccc(NC(=O)c3nc4ccccc4s3)c2O[C@H]1CN(C)Cc1ccc(Cl)c(Cl)c1`, the growth inhibition call was “inactive”.

Take `Cc1ccc(S(=O)(=O)N(C)C[C@H]2Oc3ccc(NC(=O)C4CC4)cc3CC(=O)N([C@H](C)CO)C[C@H]2C)cc1`: the growth inhibition call was “inactive”.

`COc1ccc(NC(=O)N(C)C[C@H]2OCCCC[C@@H](C)Oc3ccc(NC(=O)Nc4ccc(F)cc4)cc3C(=O)N([C@H](C)CO)C[C@@H]2C)cc1`: the growth inhibition call was “inactive”.

For `C[C@@H]1CN([C@H](C)CO)C(=O)c2cc(NC(=O)Nc3ccc(C(F)(F)F)cc3)ccc2O[C@H]1CN(C)C(=O)Nc1cccc2ccccc12`, the growth inhibition call is “inactive”.

Regarding `CCN1C(=O)S/C(=C\C(=O)O)C1=O`, the growth inhibition call is “inactive”.

With `O=C(CCCCCNC(=O)OCCCCO[C@@H]1C[C@H](c2ccc3c(c2)OCO3)C=C(C(=O)N2CCOCC2)O1)NO`, the growth inhibition call is “inactive”.

Regarding `COc1ccc(NC(=O)Nc2ccc3c(c2)C(=O)N([C@H](C)CO)C[C@@H](C)[C@@H](CN(C)S(=O)(=O)c2ccc(F)cc2)OCCCC[C@H](C)O3)cc1`, the growth inhibition call is “inactive”.

Regarding `O=C(Nc1nccs1)[C@@H]1[C@@H](CO)[C@@H]2Cn3c(cccc3=O)[C@H]1N2C(=O)C1CC1`, the growth inhibition call was “inactive”.

`Cc1ccccc1S(=O)(=O)N1C[C@H](O)COC[C@H]2O[C@@H](CC(=O)N3CCOCC3)CC[C@@H]21`: the growth inhibition call was “inactive”.

On to `Cc1ccc2c(c1)/C(=C/c1ccncc1)c1cc3ccccc3nc1-2`, for which the growth inhibition call is “inactive”.

As to `C[C@@H]1CN([C@H](C)CO)C(=O)c2cc(NC(=O)NC3CCCCC3)ccc2O[C@@H](C)CCCCO[C@@H]1CN(C)C(=O)Nc1ccccc1`, the growth inhibition call is “inactive”.

On to `C[C@H](CO)N1C[C@H](C)[C@@H](CN(C)S(=O)(=O)c2ccc(Cl)cc2)OCc2ccccc2-c2c(n(C)c3ccccc23)C1=O`, for which the growth inhibition call was “inactive”.
